Assay results taken from the supplement of paper PMC12217912.
The other results are listed elsewhere or left out. Sequences were assembled here from the parent chain. Inactive controls read about 0.05.

B1: TEV protease; numbered along this chain (parent)
chain: MGESLFKGPRDYNPISSSICHLTNESDGHTTSLYGIGFGPFIITNKHLFRRNNGTLVVQSLHGVFKVKDTTTLQQHLVDGRDMIIIRMPKDFPPFPQKLKFREPQREERICLVTTNFQTKSMSSMVSDTSCTFPSGDGIFWKHWIQTKDGQCGSPLVSTRDGFIVGIHSASNFTNTNNYFTSVPKNFMELLTNQEAQQWVSGWRLNADSVLWGGHKVFMVKPEEPFQPVKEATQL

Variants of: B1
Experiment: raw area under fraction-flipped curve 0-4 h after induction (AUC4h, not background-subtracted), DNA-recorder readout of cleavage of the substrate (dimensionless); higher = more cleavage of the substrate by the protease variant
Conditions: temperature: 34 °C; time window: 0-4 h after rhamnose induction
Procedure: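 In vivo DNA recorder in E. coli TOP10(DE3) ΔrhaA at 34 °C. Each TEVp single-site mutant (parent TEVp 0) is paired with a single-site variant of the 7-mer TEVs (canonical ENLYFQ|S). The substrate sits between flexible linkers in a Bxb1-sfGFP-TEVs-SsrA fusion, so cleavage stabilises Bxb1 and speeds flipping of a recombination array, read by NGS. The value is the raw area under the fraction-flipped curve over 0-4 h after rhamnose induction (AUC4h), with ≥20 reads per time point. It is not background-subtracted; inactive controls average about 0.047.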
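Note: Bxb1 expression induced with 0.2% (w/v) L-rhamnose at OD600 near 0.5, cultures sampled hourly, flipped fraction per protease–substrate barcode pair counted by paired-end Illumina sequencing.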

Variant	area with substrate ENAYFQS	area with substrate ENCYFQS	area with substrate ENDYFQS	area with substrate ENFYFQS	area with substrate ENGYFQS	area with substrate ENHYFQS	area with substrate ENIYFQS	area with substrate ENKYFQS	area with substrate ENMYFQS	area with substrate ENNYFQS	area with substrate ENPYFQS	area with substrate ENQYFQS	area with substrate ENRYFQS	area with substrate ENSYFQS	area with substrate ENEYFQS	area with substrate ENWYFQS	area with substrate ENYYFQS	area with substrate ENTYFQS	area with substrate ENVYFQS
MGESLFKGPRDYNPISSSICHLTRESDGHTTSLYGIGFGPFIITNKHLFRRNNGTLVVQSLHGVFKVKDTTTLQQHLVDGRDMIIIRMPKDFPPFPQKLKFREPQREERICLVTTNFQTKSMSSMVSDTSCTFPSGDGIFWKHWIQTKDGQCGSPLVSTRDGFIVGIHSASNFTNTNNYFTSVPKNFMELLTNQEAQQWVSGWRLNADSVLWGGHKVFMVKPEEPFQPVKEATQL [N24R]	0.0591	0.0574	0.103	0.085	0.0569	0.0553	0.0598	0.059	0.062	0.107	0.0744	0.062	0.0557	0.0631	–	–	–	–	–
MGESLFKGPRDYNPISSSICHLTTESDGHTTSLYGIGFGPFIITNKHLFRRNNGTLVVQSLHGVFKVKDTTTLQQHLVDGRDMIIIRMPKDFPPFPQKLKFREPQREERICLVTTNFQTKSMSSMVSDTSCTFPSGDGIFWKHWIQTKDGQCGSPLVSTRDGFIVGIHSASNFTNTNNYFTSVPKNFMELLTNQEAQQWVSGWRLNADSVLWGGHKVFMVKPEEPFQPVKEATQL [N24T]	0.058	0.0593	0.0556	–	0.0548	–	0.0747	0.062	0.0607	–	0.0693	0.0624	0.0522	–	0.0611	0.0579	0.0493	–	–
MGESLFKGPRDYNPISSSICHLTWESDGHTTSLYGIGFGPFIITNKHLFRRNNGTLVVQSLHGVFKVKDTTTLQQHLVDGRDMIIIRMPKDFPPFPQKLKFREPQREERICLVTTNFQTKSMSSMVSDTSCTFPSGDGIFWKHWIQTKDGQCGSPLVSTRDGFIVGIHSASNFTNTNNYFTSVPKNFMELLTNQEAQQWVSGWRLNADSVLWGGHKVFMVKPEEPFQPVKEATQL [N24W]	0.0639	0.067	0.0534	0.0708	0.0592	0.0597	–	0.0341	0.029	–	0.0647	0.0467	0.0708	0.0602	0.0628	–	0.0595	0.0663	–
MGESLFKGPRDYNPISSSICHLTYESDGHTTSLYGIGFGPFIITNKHLFRRNNGTLVVQSLHGVFKVKDTTTLQQHLVDGRDMIIIRMPKDFPPFPQKLKFREPQREERICLVTTNFQTKSMSSMVSDTSCTFPSGDGIFWKHWIQTKDGQCGSPLVSTRDGFIVGIHSASNFTNTNNYFTSVPKNFMELLTNQEAQQWVSGWRLNADSVLWGGHKVFMVKPEEPFQPVKEATQL [N24Y]	0.0688	0.0735	0.0683	–	0.0596	0.0595	–	0.0623	–	–	–	0.073	–	0.0717	0.0578	0.03	0.0596	0.072	0.0968
MGESLFKGPRDYNPISSSICHLTNKSDGHTTSLYGIGFGPFIITNKHLFRRNNGTLVVQSLHGVFKVKDTTTLQQHLVDGRDMIIIRMPKDFPPFPQKLKFREPQREERICLVTTNFQTKSMSSMVSDTSCTFPSGDGIFWKHWIQTKDGQCGSPLVSTRDGFIVGIHSASNFTNTNNYFTSVPKNFMELLTNQEAQQWVSGWRLNADSVLWGGHKVFMVKPEEPFQPVKEATQL [E25K]	0.0664	0.0792	–	0.0606	0.0509	0.0545	0.104	0.0644	0.0655	0.0706	0.0583	0.0613	0.0616	0.057	0.0563	0.0445	–	0.0581	0.0726
MGESLFKGPRDYNPISSSICHLTNESPGHTTSLYGIGFGPFIITNKHLFRRNNGTLVVQSLHGVFKVKDTTTLQQHLVDGRDMIIIRMPKDFPPFPQKLKFREPQREERICLVTTNFQTKSMSSMVSDTSCTFPSGDGIFWKHWIQTKDGQCGSPLVSTRDGFIVGIHSASNFTNTNNYFTSVPKNFMELLTNQEAQQWVSGWRLNADSVLWGGHKVFMVKPEEPFQPVKEATQL [D27P]	0.0631	0.0803	0.0755	0.0409	0.0606	–	0.105	0.0641	–	–	0.0579	0.0671	0.0592	0.0596	0.063	0.0618	0.0539	0.0452	0.085
MGESLFKGPRDYNPISSSICHLTNESDLHTTSLYGIGFGPFIITNKHLFRRNNGTLVVQSLHGVFKVKDTTTLQQHLVDGRDMIIIRMPKDFPPFPQKLKFREPQREERICLVTTNFQTKSMSSMVSDTSCTFPSGDGIFWKHWIQTKDGQCGSPLVSTRDGFIVGIHSASNFTNTNNYFTSVPKNFMELLTNQEAQQWVSGWRLNADSVLWGGHKVFMVKPEEPFQPVKEATQL [G28L]	0.0681	0.0529	0.0587	0.0499	–	0.0795	0.0901	0.054	0.0673	0.0585	0.0523	0.0627	0.0615	0.0616	0.0634	–	0.0583	0.047	0.0648
MGESLFKGPRDYNPISSSICHLTNESDTHTTSLYGIGFGPFIITNKHLFRRNNGTLVVQSLHGVFKVKDTTTLQQHLVDGRDMIIIRMPKDFPPFPQKLKFREPQREERICLVTTNFQTKSMSSMVSDTSCTFPSGDGIFWKHWIQTKDGQCGSPLVSTRDGFIVGIHSASNFTNTNNYFTSVPKNFMELLTNQEAQQWVSGWRLNADSVLWGGHKVFMVKPEEPFQPVKEATQL [G28T]	0.0511	0.0646	0.0598	–	0.0655	–	0.0969	0.0644	0.0663	0.0591	0.0569	0.0588	0.0574	–	0.0581	–	0.0602	0.0614	0.0636
MGESLFKGPRDYNPISSSICHLTNESDGHCTSLYGIGFGPFIITNKHLFRRNNGTLVVQSLHGVFKVKDTTTLQQHLVDGRDMIIIRMPKDFPPFPQKLKFREPQREERICLVTTNFQTKSMSSMVSDTSCTFPSGDGIFWKHWIQTKDGQCGSPLVSTRDGFIVGIHSASNFTNTNNYFTSVPKNFMELLTNQEAQQWVSGWRLNADSVLWGGHKVFMVKPEEPFQPVKEATQL [T30C]	0.0766	0.069	0.0756	0.0571	0.0745	0.0617	0.134	–	0.097	0.0592	0.0452	0.0563	0.0545	0.0611	0.0578	0.04	0.0541	0.0548	0.0733
